Measurements taken from the supplement of paper PMC12645437, “Orthogonal IMiD-Degron Pairs Induce Selective Protein Degradation in Cells” (ACS Chemical Biology, 2025).
This is one part of the list.

molecular target: no compound (DMSO); experiment: log2 fold change of degron read counts, EGFP-low vs EGFP+ sorted cells; higher = lower degron-EGFP level without compound (poor expression or instability); settings: compound: DMSO control; 18 h
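Also: jurkat cells carrying a lentiviral library of mutant zinc finger degrons fused to EGFP plus mCherry, mCherry+ cells FACS sorted, degron abundance counted by next-generation sequencing.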

Row | Sequence | log2 fold change of degron read counts
1 | FVCDVCGAQFTQKGNLLRHIKL | -1.38
2 | FLCEVCGAAFTQKGNLLRHIKL | -1.88
3 | FCCPICGHYFTQKGNLLRHIKL | 0.432
4 | FVCDICGAGFTQKGNLLRHIKL | -2.07
5 | FLCNQCGAQFTQKGNLLRHIKL | -0.993
6 | FCCNQCGRIFTQKGNLLRHIKL | 0.69
7 | FVCPICGHQFTQKGNLLRHIKL | -0.946
8 | FYCDVCGAIFTQKGNLLRHIKL | -0.902
9 | FSCPVCGAFFTQKGNLLRHIKL | 0.631
10 | LHCEICGFCCTQKGNLLRHIKL | 0.208
11 | FRCEICGHPFTQKGNLLRHIKL | -0.512
12 | FCCNQCGAHFTQKGNLLRHIKL | -0.453
13 | LACNQCGFFCTQKGNLLRHIKL | 1.36
14 | LQCEICGFWCTQKGNLLRHIKL | -0.127
15 | FKCNQCGASFTQKGNLLRHIKL | -0.752
16 | FRCEICGAWFTQKGNLLRHIKL | 0.103
17 | FQCEQCGAAFTQKGNLLRHIKL | -1.9
18 | FMCPVCGAFFTQKGNLLRHIKL | 0.432
19 | FWCPICGHQFTQKGNLLRHIKL | 0.799
20 | FSCNQCGHTFTQKGNLLRHIKL | -0.185
21 | FCCNVCGAEFTQKGNLLRHIKL | -1.57
22 | FECNVCGADFTQKGNLLRHIKL | -1.2
23 | FQCEICGHCFTQKGNLLRHIKL | -1.43
24 | LNCNQCGFQCTQKGNLLRHIKL | 0.157
25 | LVCPICGFHCTQKGNLLRHIKL | 0.771

Row | Sequence | log2 fold change of degron read counts
26 | FECPICGHCFTQKGNLLRHIKL | -0.925
27 | FNCPICGARFTQKGNLLRHIKL | 0.124
28 | LWCNQCGFPCTQKGNLLRHIKL | 1.74
29 | FWCPVCGAVFTQKGNLLRHIKL | 1.03
30 | FTCPVCGASFTQKGNLLRHIKL | -0.135
31 | FNCEVCGAVFTQKGNLLRHIKL | -1.75
32 | FVCDQCGAGFTQKGNLLRHIKL | -3.11
33 | FTCEQCGANFTQKGNLLRHIKL | -2.45
34 | FNCNQCGASFTQKGNLLRHIKL | -1.78
35 | FICPICGAVFTQKGNLLRHIKL | 0.0236
36 | FGCPICGRRFTQKGNLLRHIKL | -0.591
37 | FYCDQCGAMFTQKGNLLRHIKL | -1.46
38 | FSCEICGANFTQKGNLLRHIKL | -2.13
39 | FDCSVCGHIFTQKGNLLRHIKL | 1.21
40 | LACEICGFICTQKGNLLRHIKL | 0.44
41 | FNCDQCGAKFTQKGNLLRHIKL | -1.83
42 | LRCPICGFCCTQKGNLLRHIKL | 1.09
43 | FTCPVCGAIFTQKGNLLRHIKL | -0.157
44 | FCCNICGAYFTQKGNLLRHIKL | 0.748
45 | LCCEICGFSCTQKGNLLRHIKL | -0.513
46 | FCCNICGAAFTQKGNLLRHIKL | -0.642
47 | FDCDQCGAEFTQKGNLLRHIKL | -1.39
48 | FFCPICGAKFTQKGNLLRHIKL | 0.0537
49 | FACDVCGAMFTQKGNLLRHIKL | -1.49
50 | FECNICGAKFTQKGNLLRHIKL | -1.88
